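96-well plates; 48 h exposure; 5 concentrations. Endpoints by linear interpolation between flanking doses. Not reached: highest tested concentration assigned. GI50 is the concentration that inhibits growth by half. The concentration for full growth arrest is given as TGI.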 Square brackets hold non-standard residues; d marks the D form. Peptide text beside a SMILES is read from it. * marks the point of attachment. Dolaproine = CO[C@@H]([C@@H]1CCCN1)[C@@H](C)C(=O)O; Dil = CC[C@H](C)[C@H](NC)[C@@H](CC(=O)O)OC; X2 = C[C@@H](N*)[C@@H](O)c1ccccc1; NMeV = CN[C@H](C(=O)O)C(C)C
System: NCI-H322M lung
Assay: inhibition of tumour cell growth, NCI panel, 48 h

| Compound | TGI [µM] | GI50 [µM] |
| --- | --- | --- |
| Cc1ncc([N+](=O)[O-])n1CCn1ccnc1[N+](=O)[O-] | > 100 |  |
| COc1ccc(-c2cn[nH]c2-c2cc(OC)c(OC)c(OC)c2)cc1OCc1ccccc1 | 44.9 | 4.83 |
| Nc1cccc2nnccc12 | > 100 |  |
| OCCCCC#Cc1ccccc1C#Cc1ccccn1 | > 100 | 56.5 |
| O=c1n(-c2ccc(Cl)c(Cl)c2)c(=O)n(-c2ccc(Cl)c(Cl)c2)c(=O)n1-c1ccc(Cl)c(Cl)c1 | 8.16 |  |
| CCCCC(CCCCCC(CCCC)C1NC(C)Cc2cc(OC)c(OC)cc21)C1NC(C)Cc2cc(OC)c(OC)cc21 (stereo not drawn) | 3.88 | 2.01 |
| COc1ccc(C(C)c2cc3c(cc2O)OCO3)cc1 (stereo not drawn) | 54.3 |  |
| CC[C@H](C)[C@@H]([C@@H](CC(=O)N1CCC[C@H]1[C@H](OC)[C@@H](C)C(=O)N[C@H](C)[C@@H](O)c1ccccc1)OC)N(C)C(=O)[C@@H](NC(=O)[C@@H](NC)C(C)C)C(C)C (H-[NMeV]V[Dil][Dolaproine]-X2) | > 100 | < 0.005 |
| O=c1[nH]cnc2c1sc(=S)n2-c1ccccc1 | > 100 |  |
| O=C(c1ccco1)c1nc2ccc(Cl)cc2[n+]([O-])c1C(F)(F)F | > 100 | > 100 |
| C=C(Cl)C(Cl)(CBr)CCCC(C)(C)Cl (stereo not drawn) | 25.1 |  |
| C1C[OH+]CC[OH+]CC[OH+]CC[OH+]CC[OH+]CC[OH+]1.[Cl-].[V] | 78.8 | 23 |
| O=C(Nc1ncc(Cc2ccccc2)s1)c1sc2ccccc2c1Cl | > 74.7 | 3.3 |
| O=C(Nc1ccc2[nH]c3ccccc3c2c1)c1ccccc1Cl | > 100 | 6.44 |
| O=C1C=CC(O)(C#CCO)C=C1 | 46.1 |  |
| ClCc1ccccc1Cn1cnc2c(Cl)nc(Cl)nc21 | 3.17 | 1.46 |
| COc1ccc2c(c1)/C(=N/OC(C)=O)c1c-2c(Nc2cccc(/C(C)=N/OC(C)=O)c2)nc2ccccc12 | > 100 | 38.2 |
| COc1cc(C(=O)O)ccc1OS(=O)(=O)O | > 100 |  |
